Data published in the supplement of paper PMC4967469.
The IC50 comes from the fitted curve, where viability falls to half of the control; fits outside the tested doses are given as limits. The AUC spans the tested range (256-fold, ending at the top dose) of the same fit; the more sensitive the line, the further below 1. For some of these results: The top dose, if marked as inferred, is not printed in the source and was worked back from the curve model. For some of these results: Where an entry number is given, a second screen of the drug exists; the two often differ.

Key:
Assay in all cases: Viability of human cancer cell lines after 72 h of drug (GDSC screen)
[1] = compound: Cc1ccc(F)c(NC(=O)Nc2ccc(-c3cccc4[nH]nc(N)c34)cc2)c1 [ABT-869]; conditions: top dose 1.024 µM; top dose inferred
Description: (§1)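 Human cancer cell lines in 384-well plates, medium with 10% serum, drug for 72 h over a 256-fold dose range (nine 2-fold or five 4-fold steps up to the top dose). Adherent lines were fixed and stained with the nucleic acid dye Syto60, suspension lines read with resazurin; signal relative to control wells, capped at 0 and 100%. One two-parameter sigmoid per drug and line, fitted in a mixed model over all curves with the slope shared within a line.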

[2] = compound: C/C=C(/C)C(=O)O[C@H]1C(C)=C2[C@H]([C@@H]1OC(=O)CCCCCCC)[C@@](C)(OC(C)=O)C[C@H](OC(=O)CCC)[C@@]1(O)[C@H]2OC(=O)[C@@]1(C)O [Thapsigargin]; conditions: top dose 0.512 µM; top dose inferred
Description: as §1

[3] = compound: COc1cc2ncnc(-n3nc(-c4ccccn4)nc3N)c2cc1OC [CP466722]; conditions: top dose 16 µM; top dose inferred
Description: as §1

[4] = compound: Cc1cnc(-c2cnc(NCCNc3ccc(C#N)cn3)nc2-c2ccc(Cl)cc2Cl)[nH]1 [CHIR-99021]
Description: as §1

[5] = compound: C=CC(=O)Nc1cc(-n2c(=O)ccc3cnc4ccc(-c5cn[nH]c5)cc4c32)ccc1C [QL-X-138]; conditions: top dose 10.24 µM; top dose inferred
Description: as §1

[6] = compound: CCn1c(-c2nonc2N)nc2cnc(Oc3cccc(NC(=O)c4ccc(OCCN5CCOCC5)cc4)c3)cc21 [GSK269962A]; conditions: top dose inferred
Description: as §1

[7] = compound: COc1cc(N2CCC(O)CC2)ccc1Nc1cc(Nc2ccccc2S(=O)(=O)C(C)C)c2cc[nH]c2n1 [MPS-1-IN-1]; conditions: top dose 20 µM; top dose inferred
Description: as §1

[8] = compound: Cc1ccc(-c2c(C(=O)CCl)n(CCCO)c3ncnc(N)c23)cc1 [CMK]; conditions: top dose 4 µM; top dose inferred
Description: as §1

[9] = compound: COc1nc(C)cnc1NS(=O)(=O)c1cccnc1-c1ccc(-c2nnco2)cc1 [Zibotentan]; conditions: top dose 20 µM; top dose inferred
Description: as §1

[10] = compound: COc1cc(O)c2c(c1)/C=C/C[C@H](O)[C@H](O)C(=O)/C=C\C[C@H](C)OC2=O [(5Z)-7-Oxozeaenol]; conditions: top dose 10 µM; top dose inferred
Description: as §1

[11] = compound: O=c1cc(-c2cccc3c2Sc2ccccc2S3)oc(N2CCOCC2)c1 [KU-55933]; conditions: top dose 10 µM
Description: as §1

[12] = top dose 2.56 µM, screen: GDSC drug entry 154
[13] = top dose 2.5 µM, screen: GDSC drug entry 127
[14] = top dose 10 µM, screen: GDSC drug entry 1241, top dose inferred
[15] = top dose 5 µM, screen: GDSC drug entry 1192

Cell Line | AUC [1] | IC50 [1] | AUC [2] | IC50 [2] | AUC [3] | IC50 [3] | AUC [4, 12] | IC50 [4, 12] | AUC [5] | IC50 [5] | AUC [6, 13] | IC50 [6, 13] | AUC [7] | IC50 [7] | AUC [8] | IC50 [8] | AUC [9] | IC50 [9] | AUC [10] | IC50 [10] | AUC [11] | IC50 [11] | AUC [4, 14] | IC50 [4, 14] | AUC [6, 15] | IC50 [6, 15]
KP-N-YS (neuroblastoma, adherent) | 0.977 | > 1.02 µM | 0.312 | 0.00876 µM | 0.783 | 7.83 µM | 0.975 | > 2.56 µM | 0.585 | 1.13 µM | 0.95 | > 2.5 µM | 0.675 | 4.15 µM | 0.882 | > 4 µM | 0.982 | > 20 µM | – | – | – | – | – | – | – | –
NCI-H748 (small cell lung carcinoma, suspension) | 0.972 | > 1.02 µM | 0.527 | 0.0386 µM | 0.76 | 7.11 µM | 0.962 | > 2.56 µM | 0.383 | 0.278 µM | 0.975 | > 2.5 µM | 0.911 | > 20 µM | 0.876 | > 4 µM | 0.948 | > 20 µM | – | – | – | – | – | – | – | –
NCI-H2171 (small cell lung carcinoma, suspension) | 0.977 | > 1.02 µM | 0.349 | 0.013 µM | 0.82 | 7.67 µM | 0.991 | > 2.56 µM | 0.552 | 0.868 µM | 0.762 | 0.785 µM | 0.943 | > 20 µM | 0.868 | 2.86 µM | 0.992 | > 20 µM | – | – | – | – | – | – | – | –
NCI-H2196 (small cell lung carcinoma, adherent) | 0.964 | > 1.02 µM | 0.895 | > 0.512 µM | 0.734 | 4.84 µM | 0.987 | > 2.56 µM | 0.596 | 1.19 µM | 0.969 | > 2.5 µM | 0.951 | > 20 µM | 0.987 | > 4 µM | 0.981 | > 20 µM | – | – | – | – | – | – | – | –
SCC-3 (B-cell lymphoma, suspension) | 0.994 | > 1.02 µM | 0.55 | 0.0422 µM | 0.79 | 5.1 µM | 0.996 | > 2.56 µM | 0.575 | 0.973 µM | 0.991 | > 2.5 µM | 0.463 | 1.02 µM | 0.8 | 1.35 µM | 0.995 | > 20 µM | – | – | – | – | – | – | – | –
SIG-M5 (acute myeloid leukaemia, suspension) | 0.994 | > 1.02 µM | 0.138 | 0.00376 µM | 0.671 | 2.62 µM | 0.994 | > 2.56 µM | 0.392 | 0.349 µM | 0.976 | > 2.5 µM | 0.7 | 3.87 µM | 0.913 | 3.19 µM | 0.993 | > 20 µM | – | – | – | – | – | – | – | –
SKM-1 (haematopoietic neoplasm, suspension) | – | – | – | – | – | – | – | – | – | – | 0.96 | > 2.5 µM | – | – | 0.956 | > 4 µM | – | – | 0.28 | 0.138 µM | 0.774 | 4.35 µM | 0.982 | > 10 µM | 0.938 | > 5 µM
SU-DHL-1 (anaplastic large cell lymphoma, suspension) | 0.996 | > 1.02 µM | 0.995 | > 0.512 µM | 0.763 | 4.36 µM | 0.992 | > 2.56 µM | 0.452 | 0.49 µM | 0.974 | > 2.5 µM | 0.317 | 0.451 µM | 0.892 | 2.41 µM | 0.997 | > 20 µM | – | – | – | – | – | – | – | –
SW872 (soft tissue, adherent) | 0.989 | > 1.02 µM | 0.284 | 0.00839 µM | 0.907 | > 16 µM | 0.959 | > 2.56 µM | 0.882 | 9.05 µM | 0.709 | 0.567 µM | 0.952 | > 20 µM | 0.949 | > 4 µM | 0.988 | > 20 µM | 0.11 | 0.0408 µM | – | – | 0.829 | 5.43 µM | 0.646 | 0.758 µM
TALL-1 (T-cell lymphoblastic leukaemia, suspension) | 0.986 | > 1.02 µM | 0.34 | 0.0118 µM | 0.839 | 10.2 µM | 0.99 | > 2.56 µM | 0.899 | > 10.2 µM | 0.947 | > 2.5 µM | 0.929 | > 20 µM | 0.848 | 2.77 µM | 0.99 | > 20 µM | – | – | – | – | – | – | – | –
TE-441-T (rhabdomyosarcoma, adherent) | 0.803 | 0.486 µM | 0.606 | 0.0619 µM | 0.812 | 8.13 µM | 0.989 | > 2.56 µM | 0.569 | 0.98 µM | 0.981 | > 2.5 µM | 0.878 | 19 µM | 0.831 | 2.39 µM | 0.989 | > 20 µM | – | – | – | – | – | – | – | –
TGBC24TKB (biliary tract, adherent) | 0.988 | > 1.02 µM | 0.106 | < 0.002 µM | 0.874 | 13.8 µM | 0.951 | > 2.56 µM | 0.94 | > 10.2 µM | – | – | 0.772 | 7.21 µM | 0.956 | > 4 µM | 0.988 | > 20 µM | 0.885 | 9.75 µM | – | – | 0.982 | > 10 µM | 0.981 | > 5 µM
